The BET-seq Pho4 binding data (Le et al. 2018)
The other results are listed elsewhere or left out. These are noisy estimates, calculated here from bound and input reads.

These sequences were tested against T1, Pho4 (S. cerevisiae) (UniProt P07270) (assay: relative binding free energy (BET-seq); higher = weaker binding). Settings: reference: library average.
T1 sequence: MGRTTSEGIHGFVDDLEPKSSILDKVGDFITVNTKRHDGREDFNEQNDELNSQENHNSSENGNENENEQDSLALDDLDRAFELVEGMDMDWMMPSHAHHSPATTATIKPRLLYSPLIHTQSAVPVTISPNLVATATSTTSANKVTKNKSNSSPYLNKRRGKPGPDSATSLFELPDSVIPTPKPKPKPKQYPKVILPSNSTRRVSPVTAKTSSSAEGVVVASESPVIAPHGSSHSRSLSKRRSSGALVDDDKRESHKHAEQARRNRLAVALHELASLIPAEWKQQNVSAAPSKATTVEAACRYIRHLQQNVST

Row | Sequence | relative binding free energy
1 | CAATGCACGTGGAGTG | -0.09 kcal/mol
2 | GGGATCACGTGGTTAT | 0.11 kcal/mol
3 | TATAGCACGTGGATTG | -0.16 kcal/mol
4 | AGGGGCACGTGGGAGG | -0.17 kcal/mol
5 | TAATACACGTGTTTTA | 0 kcal/mol
6 | TCGAGCACGTGGGCTG | -0.24 kcal/mol
7 | TATGGCACGTGCCGTT | -0.21 kcal/mol
8 | GTGAGCACGTGTCATG | -0.02 kcal/mol
9 | GGTGGCACGTGGGCGA | -0.25 kcal/mol
10 | TGTGTCACGTGTGAGG | 0.2 kcal/mol
11 | GGTTGCACGTGTTTGT | -0.02 kcal/mol
12 | TGTTGCACGTGAATGT | 0.3 kcal/mol
13 | GCCGGCACGTGTGAGG | 0.04 kcal/mol
14 | CTTGACACGTGTGGAT | 0.12 kcal/mol
15 | GTCTGCACGTGCGTTG | -0.09 kcal/mol
16 | CTCGGCACGTGCTGGG | -0.2 kcal/mol
17 | TTGATCACGTGAGTTT | 0.43 kcal/mol
18 | CGGGGCACGTGGATGT | -0.17 kcal/mol
19 | AGTTCCACGTGTTGGG | 0.12 kcal/mol
20 | GAAAGCACGTGTGGGA | 0.01 kcal/mol
21 | ATTGGCACGTGGCTTG | -0.15 kcal/mol
22 | CATTGCACGTGGGGGG | -0.17 kcal/mol
23 | GTTTACACGTGTATTT | 0.04 kcal/mol
24 | TGTAACACGTGGTGCA | -0.2 kcal/mol
25 | GTTATCACGTGATACT | 0.38 kcal/mol

Row | Sequence | relative binding free energy
26 | GGCGACACGTGGAAGG | 0.12 kcal/mol
27 | AGCGCCACGTGGTGTT | -0.23 kcal/mol
28 | ATTTACACGTGGGGTG | -0.05 kcal/mol
29 | TTCATCACGTGTTGAT | 0.11 kcal/mol
30 | AAGTCCACGTGAGGTT | 0.24 kcal/mol
31 | AGTATCACGTGGTGCT | -0.05 kcal/mol
32 | ATAATCACGTGGGGGC | 0.06 kcal/mol
33 | CAGGTCACGTGGGTAT | 0.04 kcal/mol
34 | TGACTCACGTGTTTAT | 0.19 kcal/mol
35 | AGCATCACGTGTTTGT | 0.05 kcal/mol
36 | GTCGACACGTGGCGGT | 0.03 kcal/mol
37 | TTGGCCACGTGGAATT | 0.19 kcal/mol
38 | TGCGGCACGTGGGAGG | -0.18 kcal/mol
39 | AATAGCACGTGAGGAG | 0.23 kcal/mol
40 | GGGTTCACGTGCGGTC | 0.33 kcal/mol
41 | GTGTCCACGTGCTGGG | 0.04 kcal/mol
42 | CGTGTCACGTGCAGTT | 0.13 kcal/mol
43 | TTAGGCACGTGGGCGT | -0.2 kcal/mol
44 | TGGATCACGTGGAAAT | 0.3 kcal/mol
45 | AAGGTCACGTGGCGCG | 0.11 kcal/mol
46 | TTGCTCACGTGTGTTA | 0.14 kcal/mol
47 | TGATACACGTGTTTGC | -0.05 kcal/mol
48 | TGGTTCACGTGAATGA | 0.46 kcal/mol
49 | AAGGGCACGTGAGCTG | 0.16 kcal/mol
50 | TTGTACACGTGTCTAG | 0 kcal/mol

Row | Sequence | relative binding free energy
51 | ATGAGCACGTGGCGTT | -0.12 kcal/mol
52 | TATAGCACGTGAGGCG | 0.22 kcal/mol
53 | AATTTCACGTGATGGC | 0.36 kcal/mol
54 | TTATACACGTGGATAT | -0.02 kcal/mol
55 | TACTACACGTGTATGG | 0.08 kcal/mol
56 | GCGTACACGTGTTGTA | 0.2 kcal/mol
57 | GAAAGCACGTGTTGTT | 0.01 kcal/mol
58 | ATCGGCACGTGAATTA | 0.41 kcal/mol
59 | GTGTACACGTGTATTC | 0.03 kcal/mol
60 | TGTTACACGTGGCTAT | 0.04 kcal/mol
61 | TAGTTCACGTGAAGGG | 0.32 kcal/mol
62 | CGGATCACGTGGAGGT | 0.16 kcal/mol
63 | AGGTGCACGTGATAGC | 0.02 kcal/mol
64 | TGGAACACGTGGGGAT | -0.02 kcal/mol
65 | TTGTACACGTGGGAGA | 0.08 kcal/mol
66 | TTTGGCACGTGTCTAG | -0.08 kcal/mol
67 | CGTTTCACGTGCGGGC | 0.18 kcal/mol
68 | GTTTCCACGTGGGTAT | -0.07 kcal/mol
69 | GGCTACACGTGGTGGC | 0.08 kcal/mol
70 | TTTTCCACGTGTAATG | 0.1 kcal/mol
71 | ATATTCACGTGGCGGT | 0.29 kcal/mol
72 | TAAATCACGTGAGGTT | 0.43 kcal/mol
73 | TGATACACGTGCCGGG | 0.04 kcal/mol
74 | GTATTCACGTGGGGCT | 0.2 kcal/mol
75 | TTAGTCACGTGTTACT | 0.18 kcal/mol

Row | Sequence | relative binding free energy
76 | AAGGTCACGTGAGATA | 0.37 kcal/mol
77 | ATCGGCACGTGTGAAG | 0.16 kcal/mol
78 | TTGCGCACGTGATTTT | 0.27 kcal/mol
79 | TGGCGCACGTGGAGCG | -0.15 kcal/mol
80 | GGTAACACGTGCCGGT | 0.11 kcal/mol
81 | ATAATCACGTGTAGAA | 0.27 kcal/mol
82 | GTATGCACGTGGTGGC | 0 kcal/mol
83 | CATGCCACGTGTTGGT | -0.06 kcal/mol
84 | TGAGTCACGTGGGAGT | -0.03 kcal/mol
85 | CGGTTCACGTGGTTGT | 0.14 kcal/mol
86 | TGTAGCACGTGGCGTC | -0.02 kcal/mol
87 | CAATTCACGTGTGGTT | 0.17 kcal/mol
88 | TGAGGCACGTGTGACG | -0.08 kcal/mol
89 | GGGTACACGTGAAGCG | 0.22 kcal/mol
90 | TGAGGCACGTGGAGTG | -0.1 kcal/mol
91 | TTGCGCACGTGGGATA | -0.22 kcal/mol
92 | ATCGACACGTGGTGGA | 0.02 kcal/mol
93 | AGGAGCACGTGTGGGA | -0.06 kcal/mol
94 | TCTACCACGTGGGGTG | -0.24 kcal/mol
95 | TAGCGCACGTGTTTTG | -0.09 kcal/mol
96 | GTGGCCACGTGTAGGC | -0.04 kcal/mol
97 | GGGTTCACGTGTTTTC | 0.42 kcal/mol
98 | TCGGGCACGTGTTTTG | 0.06 kcal/mol
99 | TGAAGCACGTGGGCTG | -0.3 kcal/mol
100 | GCGCTCACGTGTGATG | 0.52 kcal/mol

Row | Sequence | relative binding free energy
101 | GTGGTCACGTGCGGTG | 0.17 kcal/mol
102 | AGGTGCACGTGGCGGC | -0.04 kcal/mol
103 | TGTGTCACGTGTATGC | 0.01 kcal/mol
104 | TCGGACACGTGTGTGG | -0.02 kcal/mol
105 | AGTGTCACGTGAGAAT | 0.3 kcal/mol
106 | TGGCACACGTGGTGAA | 0.08 kcal/mol
107 | GGAATCACGTGTGAGA | 0.32 kcal/mol
108 | AGGGTCACGTGGAGAA | 0.19 kcal/mol
109 | CAGTTCACGTGGTTTA | 0.14 kcal/mol
110 | CATGTCACGTGTCGTG | 0.05 kcal/mol
111 | ATCAACACGTGTGTTT | 0.04 kcal/mol
112 | GTATGCACGTGGTATT | -0.07 kcal/mol
113 | TGATCCACGTGTTTGG | 0.07 kcal/mol
114 | TATAGCACGTGCGGGG | -0.17 kcal/mol
115 | TTGCTCACGTGGGGGG | 0.11 kcal/mol
116 | GGTTACACGTGAAATG | 0.49 kcal/mol
117 | TTTGTCACGTGTTCAA | 0.01 kcal/mol
118 | TTGAGCACGTGTGTGA | -0.09 kcal/mol
119 | AGGTTCACGTGCTGGG | 0.24 kcal/mol
120 | CTTTTCACGTGTCTTT | 0.26 kcal/mol
121 | CTGCTCACGTGAGTGT | 0.24 kcal/mol
122 | TCGATCACGTGGGAGT | 0.02 kcal/mol
123 | AGGTTCACGTGAGACT | 0.33 kcal/mol
124 | TGTCGCACGTGGCGTA | -0.19 kcal/mol
125 | GTATTCACGTGTGGTG | 0.28 kcal/mol

Row | Sequence | relative binding free energy
126 | CGGGTCACGTGGATCG | 0.12 kcal/mol
127 | GTACGCACGTGGGGGT | -0.15 kcal/mol
128 | TTATTCACGTGGTGCA | 0.05 kcal/mol
129 | GGTCGCACGTGTTTAG | 0.04 kcal/mol
130 | CGTTTCACGTGCGGTC | 0.26 kcal/mol
131 | ATTGGCACGTGTGTCA | -0.17 kcal/mol
132 | TTGCACACGTGGTTTG | -0.06 kcal/mol
133 | TCTGTCACGTGTGTTG | 0.14 kcal/mol
134 | TTGTACACGTGTGGGG | 0.18 kcal/mol
135 | TAGTTCACGTGGTTGC | 0.28 kcal/mol
136 | CCGGGCACGTGAATGG | 0.16 kcal/mol
137 | CGTATCACGTGTTTTG | 0.13 kcal/mol
138 | GAGGTCACGTGCGTCG | 0.1 kcal/mol
139 | TGCATCACGTGGGTAG | -0.05 kcal/mol
140 | AATGACACGTGGGAAT | -0.02 kcal/mol
141 | CGGATCACGTGGGGGT | -0.09 kcal/mol
142 | ATGGTCACGTGGAGGC | 0.03 kcal/mol
143 | CTGAGCACGTGTTTGT | -0.18 kcal/mol
144 | GATTGCACGTGATGTG | 0.25 kcal/mol
145 | CGGCTCACGTGGCGGT | 0.11 kcal/mol
146 | TTGCTCACGTGGGTAA | -0.02 kcal/mol
